PubChem BioAssay AID652104 (National Center for Advancing Translational Sciences (NCATS), 2013)
Screen size: about 410,000 compounds; about 7,200 (1.8%) were called active. Inconclusive results, whose numbers are uncertain, are shown with a selection of clear calls. Calls follow the shape of the dose curve; as a rule, active = well fitted activation curve with a large enough effect; inconclusive = small, poorly fitted or top-dose-only effect, or another doubt; inactive = no such curve, though single readings can be large or run the other way. Potencies of inconclusive entries are left out as doubtful fits.

assay: qHTS of TDP-43 Inhibitors; conditions: TDP-43 expressing yeast growth rescue, BacTiter-Glo, 24 h; growth rescue (activation): at 46.1 µM (top of the series) unless noted; also: nearly all actives have a fitted effect of over 50% in size; as to growth rescue (activation): % of control where 0% means no effect
Procedure, shortened: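 In this qHTS, compounds that restore growth of yeast expressing TDP-43 appear as activators. Cells (OD600=0.02, galactose medium, raffinose-pregrown) are incubated with compound 24 hr at 30 deg C and growth is quantified by BacTiter-Glo.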
Potency is read from the fitted curve at half-maximal effect; tags tell the direction and shape of the fitted curve.

SMILES | Potency | growth rescue (activation)
O=C(NC(=S)Nc1ccccc1N1CCCCC1)c1cccs1 | inconclusive [activator, partial curve] | 
COc1ccc(Cl)cc1-n1c(/C=C/c2cccc3ccccc23)nc2ccccc2c1=O | inconclusive [activator, full curve, poor fit] | 
Oc1ccccc1CNc1ccc(OC(F)(F)F)cc1 | inconclusive [activator, single point] | 
CCOc1cc(/C=N/O)ccc1OCc1ccccc1F | inconclusive [activator, full curve, poor fit] | 
Cc1cc(C(=O)Nc2ccc3c(c2)OCCO3)c2ccccc2n1 | inconclusive [activator, partial curve] | 
COc1ccc(Cl)cc1NC(=O)CN1CCN(Cc2ccccc2)CC1 | inconclusive [activator, partial curve] | 
COc1ccc(-c2nc(C)c(CCNS(=O)(=O)c3cc(Cl)ccc3Cl)s2)cc1 | active: 25.1 µM | 
CC1Cc2ccccc2N1C(=S)NC(=O)c1cccc(Br)c1 (centres undefined) | inconclusive [activator, single point] | 
COC(=O)[C@]12CCCCC=C1N(Cc1ccc3c(c1)OCO3)C(=O)[C@H](CC(=O)NCc1cccc3ccccc13)C2 | inconclusive [activator, partial curve, poor fit] | 
COc1cc(OC)cc(C2=Cc3ccccc3C(CC(=O)c3ccco3)N2c2ccc(-c3cncnc3)cc2)c1 (centres undefined) | inconclusive [activator, full curve, poor fit] | 
COC(=O)CN1C(=O)CSc2ccc(S(=O)(=O)Nc3cc(C)ccc3C)cc21 |  | inactive: -1.74%
COc1ccc(Cc2nc(-c3cccs3)no2)cc1OC | inconclusive [activator, partial curve] | 
Cc1ccc(C#N)c(SCC(=O)Nc2nccs2)n1 |  | inactive: 5.11%
CC(C)Oc1cccc(-c2cc(C(=O)NC(=S)N(C)c3ccccc3C(=O)O)c3ccccc3n2)c1 | inconclusive [activator, full curve] | 
CCOC(=O)C(=CNc1ccc(C)cc1C)C(=O)OCC | inconclusive [activator, partial curve] | 
COCc1nc(-c2ccc(-c3ccc(OC)cc3)nc2OC)no1 | inconclusive [activator, partial curve] | 
Cc1cc(F)ccc1NCc1ccc([N+](=O)[O-])cc1 | inconclusive [activator, partial curve] | 
Cc1ccc(S(=O)(=O)n2c(=O)oc3ccccc32)cc1 | active: 8.91 µM | 
O=C(c1ccccn1)N1N=C2/C(=C/c3ccc(F)cc3)CCCC2C1c1ccc(F)cc1 (centres undefined) |  | inactive: -3.7%
CCOC(=O)c1cccc(COC(=O)c2cccc(-c3nnc(-c4ccccc4)o3)c2)c1 |  | inactive: -24.3%
Cc1cc(C)c(NC(=O)c2sc3nc(C)cc(C)c3c2NC(=O)c2ccccc2)c(C)c1 |  | inactive: -3.81%
Cc1ccc(Nc2nc(CSc3nnnn3C)cs2)cc1 | inconclusive [activator, single point] | 
CC(C)NC(=O)Cn1nnc(-c2ccccc2)c1COc1ccc2ccccc2c1 |  | inactive: 11%

SMILES | Potency | growth rescue (activation)
CCCCC(=O)NC1CC(=O)N(c2ccc3c(c2)OCCO3)C1 (centres undefined) |  | inactive: -9.1%
O=C1CC(SC2=NCCS2)C(=O)N1c1cccc(Cl)c1Cl (centres undefined) | inconclusive [activator, partial curve, poor fit] | 
CCCCNC(=O)c1ccc(NC(=O)C2CCCO2)cc1 (centres undefined) | inconclusive [activator, partial curve] | 
Cc1cccc(C)c1NC(=O)c1cccc2c1C(=O)N(C1CCCCC1)C2 | inconclusive [activator, single point] | 
CCCN(CC1CC1)c1cc2c(c3c1ccn3C)C1CCC2O1 (centres undefined) | inconclusive [activator, full curve, poor fit] | 
Cn1nnc(NC(=S)NC(=O)c2ccc3ccccc3c2)n1 | inconclusive [activator, full curve, poor fit] | 
Cc1c(NC(=O)c2ccc(-c3cccc([N+](=O)[O-])c3)o2)cccc1-c1nc2cc(Cl)ccc2o1 |  | inactive: 21.9%
CC(=O)c1sc2nc(-c3cccs3)ccc2c1N | active: 10 µM | 
Cc1ccc(CNC(=O)c2ccccc2NS(=O)(=O)c2ccc(Cl)nc2)cc1 | inconclusive [activator, partial curve] | 
Cn1cnc([N+](=O)[O-])c1Oc1cccc2ccccc12 | inconclusive [activator, single point] | 
Cc1ccccc1Sc1ncccc1[N+](=O)[O-] | active: 12.6 µM | 
Cc1ccc(C)c(N2CCN(C(=O)C3CCCN(S(=O)(=O)c4c(C)noc4C)C3)CC2)c1 (centres undefined) | inconclusive [activator, single point] | 
CCCn1c(NC(=O)C2COc3ccccc3O2)nc2ccccc21 (centres undefined) | inconclusive [activator, full curve] | 
COc1ccc([C@@H]2CC=C(C(=O)O)[C@H](c3ccc(F)cc3)N2S(=O)(=O)c2ccc(Cl)cc2)cc1 | active: 14.1 µM | 
CC(=O)c1ccc(N2CCN(C(=O)C3CCCN(S(=O)(=O)c4ccc(Br)s4)C3)CC2)cc1 (centres undefined) | inconclusive [activator, partial curve] | 
COc1ccc(NC(=S)N(Cc2ccc(Cl)cc2)Cc2ccc(C(=O)O)cc2)cc1Cl | inconclusive [activator, single point] | 
COc1ccc(OC)c(NC(=O)CN2c3cccc4cccc(c34)S2(=O)=O)c1 | inconclusive [activator, partial curve] | 
CCc1ccc(CNC(=O)c2nn(-c3ccc(C)cc3)c(=O)c3c2c2ccccc2n3C)cc1 |  | inactive: 1%
CCc1nc2oc3ccccc3c(=O)c2c(=O)n1Cc1ccccc1 | inconclusive [activator, single point] | 
O=C(Nc1nc2c(s1)CCCC2)C1COc2ccccc2O1 (centres undefined) | inconclusive [activator, partial curve] | 
Cc1nc2c(-c3ccc(F)cc3)c(C)nn2c(C)c1CCC(=O)N1CCN(c2ccccc2)CC1 | inconclusive [activator, single point] | 
Cc1ccccc1Sc1ccc([N+](=O)[O-])cn1 | inconclusive [activator, partial curve] | 
CC1=Nc2cc(C(=O)NCc3ccccc3Cl)ccc2Sc2c(C)ccc(C)c21 |  | inactive: 8.62%

SMILES | Potency | growth rescue (activation)
COc1cccc(OCCNS(=O)(=O)c2ccccc2[N+](=O)[O-])c1 | inconclusive [activator, partial curve] | 
CCN(CC(=O)NCc1ccc(Cl)cc1)C(=O)CSc1cccc(C(F)(F)F)c1 |  | inconclusive: 256% [activator]
Cc1ccccc1-c1cc2c(nn1)-c1ccccc1C2=O | inconclusive [activator, partial curve] | 
CCCCN1C=C(C(C)=O)C(=O)CC1 | inconclusive [activator, full curve, poor fit] | 
O=C(NCc1ccc2c(c1)OCO2)c1ccc(CSCc2cccc(Cl)c2)o1 | inconclusive [activator, partial curve] | 
Cc1cc(C)c(NC(=O)Cn2nc(-c3ccncc3)ccc2=O)c(C)c1 |  | inactive: 12.2%
COc1ccccc1NC(=O)C(C)Sc1nccn1C (centres undefined) |  | inactive: -0.501%
CCc1nc2sc3c(c2c(=S)[nH]1)CC(C)(C)OC3 |  | inactive: 0%
Cc1c(Br)cc(C(=O)NCc2ccco2)c(C)c1C | inconclusive [activator, single point] | 
CC(C)NC(=O)C1(C)CSCC(=O)N1C1CC1 (centres undefined) |  | inactive: -12.2%
O=C(Cc1cccc(Cl)c1)Nc1ccc(Br)cc1 | inconclusive [activator, full curve] | 
COc1ccccc1C(=O)NCCn1cc(SCC(=O)Nc2ccccc2F)c2ccccc21 | inconclusive [activator, single point] | 
CC(C(=O)N1CCN(c2ccccc2F)CC1)c1ccc([N+](=O)[O-])cc1 (centres undefined) | inconclusive [activator, single point] | 
COc1ccc(OC)c(NC(=O)C2(C)CCN2C(=O)C(C)(C)c2ccccc2)c1 (centres undefined) | inconclusive [activator, partial curve] | 
CCCCn1nc(C(=O)Nc2cc(C(F)(F)F)ccc2N2CCOCC2)ccc1=O | inconclusive [activator, single point] | 
CC(C)(C)n1ncc2c(=O)n(CC(=O)c3ccccc3)cnc21 | inconclusive [activator, partial curve] | 
CCCCc1ccc(S(=O)(=O)Nc2cc(C)on2)cc1 | inconclusive [activator, single point] | 
CC(=O)c1ccc(-c2cnc3c(NC=O)cc(-c4ccccc4Oc4ccccc4)cn23)cc1 | inconclusive [activator, single point] | 
CCCCN(CCCC)C(=O)/C=C/c1cccc([N+](=O)[O-])c1 | inconclusive [activator, partial curve] | 
Cc1ccc(NC(=O)Cc2ccc(-n3c(C)nc4cccnc43)cc2)c(Cl)c1 |  | inactive: 21.2%
CN(Cc1nc2ccccc2c(=O)[nH]1)C(=O)c1ccccc1OCc1ccc(Cl)cc1 | active: 20 µM | 
O=C(NC1CCCCC1)N(CCN1CCCC1)Cc1cc2cc3c(cc2[nH]c1=O)OCCO3 |  | inactive: 7.98%
CCC(=O)N1CCC1(C)C(=O)Nc1ccc(Cl)c(Cl)c1 (centres undefined) | inconclusive [activator, partial curve] | 
